One assay deals with T1, PD1.
T1 construct: The legend says only recombinant human PD-1
The experiment in a line: SPR, H7-767 immobilised on a CM5 chip, recombinant human PD-1 as analyte (capture step). A general note: Surface plasmon resonance follows binding to a sensor surface in real time, without labels.

Assay [1] has as its target T2, human PD-1 (amino acids 1-185) stably expressed on Jurkat cells (human, UniProt Q15116 partial chain).
T2 construct: extracellular domain and a portion of the transmembrane domain, on cells; also called hPD-1; Jurkat+hPD-1 cell line
T2 sequence (Q15116 21-185 limits assumed, form in doubt): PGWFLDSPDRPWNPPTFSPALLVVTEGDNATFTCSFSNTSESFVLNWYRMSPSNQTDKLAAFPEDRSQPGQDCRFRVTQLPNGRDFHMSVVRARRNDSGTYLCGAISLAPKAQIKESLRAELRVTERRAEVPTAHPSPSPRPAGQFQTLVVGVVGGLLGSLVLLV
The experiment in a line: flow cytometry, Jurkat+hPD-1 cells, APC anti-human IgG Fc, gMFI; no competitor. Background: Flow cytometry measures light scatter and fluorescence of single cells or particles in a stream.

Assay [2] has as its target T2, human PD-1 (amino acids 1-185) stably …. Nature of the assay: flow cytometry, Jurkat+hPD-1 cells, APC anti-human IgG Fc, gMFI; cells first saturated with 10 µM anti-hPD-1 #2-mIgG2b-N297A.
For assay [3], the target named is T3, cynomolgus PD-1 (1-185), HA-tagged, transiently expressed on HEK-293T cells (cynomolgus, UniProt B0LAJ3 25-185).
T3 construct: also called cyno PD-1; not shown: HA tag and its junction
The experiment in a line: flow cytometry, HEK-293T cells transiently expressing HA-tagged cynomolgus PD-1, gated on HA-positive cells, APC anti-human IgG Fc, gMFI.

T1 sequence (chain, as listed by the source limits assumed): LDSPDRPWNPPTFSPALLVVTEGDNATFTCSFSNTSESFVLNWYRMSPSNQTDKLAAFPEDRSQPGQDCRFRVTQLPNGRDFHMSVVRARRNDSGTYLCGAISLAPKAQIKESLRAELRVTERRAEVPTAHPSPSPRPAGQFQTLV

B1: H7-767 (other)
heavy: EVQLLESGGGLVQPGGSLRLSCAASGFTFKSYAMHWVRQAPGKGLEWVSAIVYSGGSTYYADSVKGRFTISRDNSKNTLYLQMNSLRAEDTAVYYCAKYDRASYFYDAMDVWGQGTTVTVSS[sequence of human IgG1 constant region with L235A G237A (EU numbers) omitted]APASSSTKKTQLQLEHLLLALQMILNGINNYKNPKLTEMLTFKFYMPKKATELKHLQCLEEELKPLEEVLNLAQSKNFHLRPRDLISNINVIVLELKGSETTFMCEYADETATIVEFLNRWITFAQSIISTLT
light: EIVLTQSPGTLSLSPGERATLSCRASQSISSSFLAWYQQKPGQAPRLLIYDASDRATGIPDRFSGSGSGTDFTLTISRLEPEDFAVYYCQQYYDWPPLSFGGGTKVEIKRTVAAPSVFIFPPSDEQLKSGTASVVCLLNNFYPREAKVQWKVDNALQSGNSQESVTEQDSKDSTYSLSSTLTLSKADYEKHKVYACEVTHQGLSSPVTKSFNRGEC
notes: anti-hPD-1 antibody with attenuated hIL-2 directly fused to the heavy chain C-terminus; also called H7-632-hIgG1-LAGA-df-hIL-2 (T3A/D20A/R38E/C125A)
B1: the binding result in the assay with PD1 is on record as “binds”.

B2: 2H7-hIgG4-df-hIL-2 (D20A/R38E) (other)
heavy: EVQLLESGGGLVQPGGSLRLSCAASGFTFKDYCMTWVRQAPGKGLEWVSAIVYSGGSTYYADSVKGRFTISRDNSKNTLYLQMNNLRAEDTAVYYCAKYTRASYFYDAMDVWGQGTTVTVSSASTKGPSVFPLAPCSRSTSESTAALGCLVKDYFPEPVTVSWNSGALTSGVHTFPAVLQSSGLYSLSSVVTVPSSSLGTKTYTCNVDHKPSNTKVDKRV[sequence of about 350 residues with a human IgG4 Fc omitted]
light: EIVLTQSPGTLSLSPGERATLSCRASQSIGKSFLAWYQQKPGQAPRLLIYDASTRAADIPARFSGSGSGTDFTLTISSLEPEDFAVYYCQQYYDWPPLSFGGGTKVEIKRTVAAPSVFIFPPSDEQLKSGTASVVCLLNNFYPREAKVQWKVDNALQSGNSQESVTEQDSKDSTYSLSSTLTLSKADYEKHKVYACEVTHQGLSSPVTKSFNRGEC
As a reminder, the EC50 (read off the curve) is the midpoint of the concentration-response curve. A low value points to higher potency in that assay. B2: the “EC50 (read off the curve)” value was about 0.2 nM in assay [1] and about 0.7 nM in assay [2].

B3: 1H3-hIgG4-df-hIL-2 (D20A/R38E) (other)
heavy: EVQLVESGGGLVQPGRSLKLSCAVSGFTFSDYAMAWVRQAPKKGLEWVATISYDGSRTYYRDSVKGRFTISRDNAKITLYLQMDSLRSEDTATYYCARHGSGYFDYWGQGVMVTVSSASTKGPSVFPLAPCSRSTSESTAALGCLVKDYFPEPVTVSWNSGALTSGVHTFPAVLQSSGLYSLSSVVTVPSSSLGTKTYTCNVDHKPSNTKVDKRV[sequence of about 350 residues with a human IgG4 Fc omitted]
light: DTVLTQSPALAVSPGERVTISCRASESVRTGVHWYQQKPGQQPKLLIYGASNLESGVPARFSGSGSGTDFTLTIDPVEADDTATYFCQQSWNDPFTFGSGTKLEIKRTVAAPSVFIFPPSDEQLKSGTASVVCLLNNFYPREAKVQWKVDNALQSGNSQESVTEQDSKDSTYSLSSTLTLSKADYEKHKVYACEVTHQGLSSPVTKSFNRGEC
notes: negative control fusion protein; also called isotype control anti-DNase 1H3-hIgG4-df-hIL-2 (D20A/R38E)
Take B3: the binding result in assay [3] is “no binding (tested: about 560 nM)”.

B4: C51E6-5-hIgG4-L6-hIL-2 (D20A/R38E) (other)
heavy: QVQLVQSGSELKKPGASVKVSCKASGYSLYGTSMHWVRQAPGQGLEWMGYISPFTGRATYAQGFTGRFVFSLDTSVSTAYLQISSLKAEDTAVYYCARDYDYRYYYAMDYWGQGTTVTVSSASTKGPSVFPLAPCSRSTSESTAALGCLVKDYFPEPVTVSWNSGALTSGVHTFPAVLQSSGLYSLSSVVTVPSSSLGTKTYTCNVDHKPSNTKVDKRV[sequence of about 350 residues with a human IgG4 Fc omitted]
light: EIVLTQSPDFQSVTPKEKVTITCTASESVPPQFLHWYQQKPDQSPKLLIYASRERASGVPSRFSGSGSGTDFTLTINSLEAEDAATYYCHQFHRSPLTFGGGTKLEIKRTVAAPSVFIFPPSDEQLKSGTASVVCLLNNFYPREAKVQWKVDNALQSGNSQESVTEQDSKDSTYSLSSTLTLSKADYEKHKVYACEVTHQGLSSPVTKSFNRGEC
Turning to B4, the concentration giving a half-maximal response (EC50 (read off the curve)) in assay [3] was about 6 nM.

(Values after patent US20250195677A1 (CEPHALON, published 2025).)
